Data as given in PubChem BioAssay AID1452 (National Center for Advancing Translational Sciences (NCATS), 2008).
Screen size: about 150,000 compounds; about 190 (0.13%) were called active. The shares of active, inactive and inconclusive entries below differ from those in the screen. Calls follow the shape of the dose curve; as a rule, active = well fitted inhibition curve with a large enough effect; inconclusive = small, poorly fitted or top-dose-only effect; inactive = flat fitted curve, though single readings scatter. Where the call is inconclusive, the potency comes from a doubtful curve fit.

These compounds were tested against Polyunsaturated fatty acid lipoxygenase ALOX12 (Homo sapiens) (UniProt P18054) (assay: qHTS Assay for Inhibitors of 12-hLO (12-human lipoxygenase)). Conditions: purified 12-hLO, xylenol orange hydroperoxide absorbance; series mostly up to 57.1 µM.
Procedure, shortened: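 150 nM 12hLO, 25 mM Hepes pH 7.0 + 0.01% Triton X-100; cpd preinc 15 min RT; 40 uM arachidonic acid, 30 min RT; Fe-XO 30 min; A573/A405 ratio as read-out.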
Also: nearly all actives have a fitted effect of over 55% in size.
Potency is read from the fitted curve at half-maximal effect; tags tell the direction and shape of the fitted curve.

Chain of UniProt P18054 (P18054 whole entry, looked up): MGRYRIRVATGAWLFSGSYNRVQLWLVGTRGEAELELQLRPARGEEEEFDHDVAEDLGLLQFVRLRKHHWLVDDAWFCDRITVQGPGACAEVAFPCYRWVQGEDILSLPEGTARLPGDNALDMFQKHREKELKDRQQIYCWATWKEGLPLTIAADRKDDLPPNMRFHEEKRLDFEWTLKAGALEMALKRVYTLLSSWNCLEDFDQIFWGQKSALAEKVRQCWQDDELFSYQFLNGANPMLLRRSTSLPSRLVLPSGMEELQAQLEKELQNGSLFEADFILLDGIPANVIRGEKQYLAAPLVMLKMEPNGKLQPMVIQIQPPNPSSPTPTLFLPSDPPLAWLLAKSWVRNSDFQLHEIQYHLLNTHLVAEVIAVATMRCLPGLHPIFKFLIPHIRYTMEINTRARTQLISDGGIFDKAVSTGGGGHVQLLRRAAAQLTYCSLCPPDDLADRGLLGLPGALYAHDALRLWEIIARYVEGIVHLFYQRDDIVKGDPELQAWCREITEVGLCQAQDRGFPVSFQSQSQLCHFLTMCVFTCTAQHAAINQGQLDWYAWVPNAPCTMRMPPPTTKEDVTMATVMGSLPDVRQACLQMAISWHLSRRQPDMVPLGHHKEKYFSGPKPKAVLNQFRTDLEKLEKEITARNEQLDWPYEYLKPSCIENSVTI

| SMILES | Potency |
| --- | --- |
| COc1cccc(/C=C/C(=O)c2c(O)cc(C)oc2=O)c1O | inconclusive: 12.6 µM [inhibitor, partial curve] |
| O=C(CSc1nnc(-c2cccnc2)n1Cc1ccco1)c1ccc(Br)cc1 | inactive |
| O=C(NC(CSCc1ccccc1)C(=O)N/N=C/c1ccc(O)cc1O)c1ccc([N+](=O)[O-])cc1 (stereo not drawn) | inconclusive: 4.47 µM [inhibitor, partial curve] |
| CCOC(=O)C1=C(C)N(C)C(=S)NC1c1ccccc1Cl (stereo not drawn) | inconclusive: 39.8 µM [inhibitor, single point] |
| COCCn1c(-c2ccccc2)nc2ccccc21 | inactive |
| CCCOc1ccc(C(=O)NNC(=S)NC(=O)c2cc(-c3ccc(Cl)cc3)nc3ccccc23)cc1 | inconclusive: 12.6 µM [inhibitor, partial curve] |
| CC(/C=N/NC(=O)c1cc(-c2ccc(Cl)cc2)nc2ccccc12)=C\c1ccco1 | inconclusive: 20 µM [inhibitor, single point] |
| CSc1nnc(-c2ccco2)c(-c2ccco2)n1 | inactive |
| O=C1C=CC(=O)c2c(O)c(Cl)c(Cl)c(O)c21 | inconclusive: 20 µM [inhibitor, single point] |
| CC(=O)c1c(N2CCCC2)[nH]c(-c2ccccc2)nc1=S | inconclusive: 35.5 µM [inhibitor, single point] |
| Cc1ccc(C(=O)NC(=S)/C=C2\N(C)c3ccccc3C2(C)C)cc1 | inconclusive: 17.8 µM [inhibitor, partial curve] |
| COC(=O)c1ccc(C(=O)OC)c(NC(=S)N2CCCC(C)C2)c1 (stereo not drawn) | inactive |
| CCc1cc(=O)oc2cc(C)c(CN3CCCC(C)C3)c(O)c12 (stereo not drawn) | inconclusive: 15.8 µM [inhibitor, single point] |
| O=C(/C=C/c1ccccc1)c1cc(Br)ccc(=O)c1O | inconclusive: 0.501 µM [inhibitor, full curve] |
| COC(=O)c1ccc(C2NC(=S)N(c3ccccc3)C(C)=C2C(=O)Nc2ccccc2OC)cc1 (stereo not drawn) | inconclusive: 39.8 µM [inhibitor, single point] |
| Cc1nn(-c2ccccc2)c2[nH]c(=O)c(CNc3ccc(N4CCOCC4)cc3)cc12 | inconclusive: 25.1 µM [inhibitor, partial curve] |
| Cc1ccc(Cl)cc1-c1ccc(C=Nc2ccc(N3CCOCC3)cc2)o1 | inconclusive: 3.98 µM [inhibitor, full curve, poor fit] |
| CC1=NOC(=O)/C1=C/c1ccc(-c2ccc(Cl)cc2)o1 | inconclusive: 20 µM [inhibitor, partial curve] |
| CN(C(=O)COc1ccccc1C(=O)NCCc1ccccc1)c1ccccc1 | inactive |
| Cc1ccc(S(=O)(=O)Nc2cc(C)nn2-c2ccccc2)cc1 | inactive |
| O=C(COc1ccc(Cl)cc1Cl)NC(=O)N1CCCCC1 | inactive |
| COc1ccccc1NC(=S)NC(=O)/C=C/c1ccco1 | inconclusive: 35.5 µM [inhibitor, single point] |

| SMILES | Potency |
| --- | --- |
| COCCCNc1c2c3c(cccc3[nH]c1=O)C(=O)c1ccccc1-2 | inconclusive: 12.6 µM [inhibitor, partial curve] |
| S=C(NCc1ccc(Cl)cc1)NC12CC3CC(CC(C3)C1)C2 | active: 22.4 µM |
| Cc1cccc(NC(=S)NNC(=O)COc2ccc(Cl)cc2Cl)c1 | inconclusive: 25.1 µM [inhibitor, single point] |
| Oc1ccc(N=Nc2n[nH]c(-c3ccc(Cl)cc3)n2)cc1 | inconclusive: 17.8 µM [inhibitor, partial curve] |
| COc1cc(NC(=S)NCCC(c2ccccc2)c2ccccc2)c(OC)cc1Cl | active: 22.4 µM |
| CCOc1ccc2c(c1)-c1c(ssc1=S)C(C)(C)N2 | inconclusive: 15.8 µM [inhibitor, partial curve] |
| COc1cccc(C(=O)NC(=S)Nc2ccc(N(C)C)cc2)c1 | inconclusive: 20 µM [inhibitor, single point] |
| COc1ccc(NS(=O)(=O)c2ccc(N3CCCC3)c(NC(=S)Nc3ccc(SC(F)F)cc3)c2)cc1 | inconclusive: 12.6 µM [inhibitor, partial curve] |
| C=CC(C)(C)c1[nH]c2ccccc2c1C1=C(O)C(=O)C(c2c[nH]c3c(CC=C(C)C)cccc23)=C(O)C1=O | inconclusive: 28.2 µM [inhibitor, partial curve] |
| C=CCN(CC=C)S(=O)(=O)c1ccc(NC(=S)NC(=O)Cc2ccc(OC)cc2)cc1 | inconclusive: 31.6 µM [inhibitor, single point] |
| CCOC(=O)c1ccc(NC(=O)CSc2nnc(CCc3ccc(C)o3)n2-c2ccccc2)cc1 | inconclusive: 22.4 µM [inhibitor, partial curve] |
| O=[N+]([O-])c1nn(-c2ccc(Cl)cc2)n(O)c1=NCc1cccnc1 | inconclusive: 39.8 µM [inhibitor, single point] |
| COC(=O)/C=C1\S/C(=N/NC(=O)c2ccccc2)NC1=O | inactive |
| O=C(COC(=O)Cc1ccsc1)Nc1ccc(S(=O)(=O)N2CCOCC2)cc1 | inactive |
| CCCCc1ccc(NC(=S)NN2CCOCC2)cc1 | inconclusive: 28.2 µM [inhibitor, single point] |
| CC(C)/C=N/Nc1nc(-c2ccc(Br)cc2)cs1 | inconclusive: 31.6 µM [inhibitor, single point] |
| CCc1cc(-c2n[nH]c(C)c2Oc2ccc(C(C)C)cc2)c(O)cc1O | inconclusive: 5.01 µM [inhibitor, partial curve] |
| COc1cc(/C=C2/SC(=S)NC2=O)ccc1OS(=O)(=O)c1ccc(C)cc1 | inconclusive: 25.1 µM [inhibitor, single point] |
| CC1(C)CC2(CC(c3ccccc3)Oc3cc(O)ccc32)NC(=S)N1 (stereo not drawn) | inconclusive: 35.5 µM [inhibitor, single point] |
| COc1ccc(Cn2cc3c(-c4ccc(F)cc4)nnc-3c3cc(OC)c(OC)cc32)cc1 | inconclusive: 31.6 µM [inhibitor, single point] |
| CCOc1ccc(NC(=S)N/N=C(\C)Cc2ccc(OC)cc2)cc1 | inconclusive: 39.8 µM [inhibitor, single point] |
